Consider 29 molecules from PubChem BioAssay AID1745853 (National Center for Advancing Translational Sciences (NCATS), 2022).

What all share (test): Primary Screen for Target Class Profiling of Small Molecule Inhibitors of Methyltransferases
The target of experiment [1] is Glycine N-methyltransferase (Homo sapiens) (UniProt Q14749). As to conditions: purified enzyme, MTase-Glo SAH luminescence; measured here: GNMT inhibition; at 40 µM; stronger effect = lower value. The method, boiled down:
(§1)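 Each enzyme was reacted with SAM and its substrate, with compounds tested once at 40 uM; SAH formed was read by MTase-Glo luminescence.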

Experiment [2] concerns the target Guanidinoacetate N-methyltransferase (Homo sapiens) (UniProt Q14353). As to conditions: purified enzyme, MTase-Glo SAH luminescence; measured here: GAMT inhibition; at 40 µM; stronger effect = lower value. Summed up: as §1
Experiment [3] addresses Histamine N-methyltransferase (Homo sapiens) (UniProt P50135). Particulars: purified enzyme, MTase-Glo SAH luminescence; measured here: HNMT inhibition; at 40 µM; stronger effect = lower value. The method, boiled down:
as §1

In experiment [4] the target is Nicotinamide N-methyltransferase (Homo sapiens) (UniProt P40261). As to conditions: purified enzyme, MTase-Glo SAH luminescence; measured here: NNMT inhibition; at 40 µM; stronger effect = lower value. The method, boiled down:
as §1

Experiment [5] deals with Phenylethanolamine N-methyltransferase (Homo sapiens) (UniProt P11086). As to conditions: purified enzyme, MTase-Glo SAH luminescence; measured here: PNMT inhibition; at 40 µM; stronger effect = lower value. Summed up: as §1

“And” between values parts separate entries of the source, which are not always exact repeats. Identical values can stand only once. The list shows a part of the results. The main result of the screen is listed elsewhere. These columns were measured beside it and carry no call.
On the % scale 0 is the no-effect control and ±100 the full control effect.

For the molecule `CCCn1c(=O)c2ccc(C(=O)NC3CCCCC3)cc2n2c(=O)n(CC(=O)c3ccc(C)cc3)nc12`, the activity change, negative = inhibition in experiment [1] amounted to 3.24%; in experiment [2], 2.71%; in experiment [3] it was 7.51%; in experiment [4], 0.32%; in experiment [5] it was 2.28%.
Take `COc1ccccc1CNC(=O)C1(C)Cn2nc(-c3ccccc3)cc2C(=O)N1Cc1ccc(F)cc1` (stereo not given): the activity change, negative = inhibition turned out to be 6.87% in experiment [1]; 0% in experiment [2]; 11.4% in experiment [3]; 7.57% in experiment [4]; 3.38% in experiment [5].
In the case of `CCOc1ccccc1CN1C(=O)c2cc(C(C)(C)C)nn2CC1(C)C(=O)NC1CCCCC1` (stereo not given), the activity change, negative = inhibition in experiment [1] is -9.3%; in experiment [2], -2.24%; in experiment [3], -3.28%; in experiment [4] it was -11.3%; in experiment [5], -4.68%.
For `CSCCC(NS(=O)(=O)c1ccc2c(c1)oc(=O)n2C)C(=O)NC1CCN(Cc2ccccc2)CC1` (stereo not given) the same measures were 13.6%, 0%, 9.01%, -0.609% and 2.3%.
For `CCCc1ccc(-c2nc(C3CCOC3)no2)cc1` (stereo not given) the same measures were -3.76%, -0.321%, -0.434%, -4.7% and -1.71%.
Taken in the same sequence, the figures for `CC(C)(C)NS(=O)(=O)c1cncc(-c2cc(F)c3nc(N)nn3c2)c1` were -4.55%, -1.03%, 1.94%, -11.9% and 0.435%.
As to `COc1ccc(NC(=O)N2CCC3(CC2)SCC(=O)N3c2ccc(F)cc2)cc1`, the activity change, negative = inhibition is -4.85% in experiment [1]; -0.931% in experiment [2]; 0.014% in experiment [3]; -2.05% in experiment [4]; -0.901% in experiment [5].
Regarding `CCC(C)NC(=O)c1ccc2c(=O)n(Cc3ccccc3)c3nn(Cc4ccc(C)cc4)c(=O)n3c2c1` (stereo not given), the activity change, negative = inhibition in experiment [1] amounted to 7.15%; in experiment [2], 0%; in experiment [3], 4.45%; in experiment [4], 5.04%; in experiment [5], 3.65%.
For `CCCS(=O)(=O)N1C[C@@H](Oc2cccnc2)C[C@H]1C(N)=O` the same measures were -3.46%, -0.569%, -0.896%, -5.45% and 9.29%.
Consider `COc1ccc(NC(=O)N2CCn3cccc3C2C)cc1` (stereo not given), for which the activity change, negative = inhibition in experiment [1] is -7.32%; in experiment [2], -0.652%; in experiment [3], -7.15%; in experiment [4], -12.5%; in experiment [5] it was -6.46%.
Consider `COc1cccc(CNC(=O)CCc2nnc3n(CCC(C)C)c(=O)c4ccccc4n23)c1`, for which the activity change, negative = inhibition in experiment [1] was -7.51%; in experiment [2], 0.227%; in experiment [3] it was 5.61%; in experiment [4], -16.6%; in experiment [5], -0.678%.
On to `CCOC(=O)c1cc2n(n1)CC(C)(C(=O)NCCC(C)C)N(Cc1cccc(C)c1)C2=O` (stereo not given), for which the activity change, negative = inhibition in experiment [1] is -4.54%; in experiment [2], 3.62%; in experiment [3], -1.77%; in experiment [4], -5.92%; in experiment [5], -1.71%.
For `Cc1ccc(CNC(=O)C2(C)Cn3nc(C(=O)NCc4cccc(C)c4)cc3C(=O)N2C)cc1` (stereo not given) the same measures were -0.566%, 4.93%, 0.891%, 2.56% and 2.28%.
Taken in the same sequence, the figures for `c1cc2c(cc1-c1n[nH]c(C3CCOCC3)n1)OCO2` were -4.48%, -3.71%, -1.76%, -11.6% and -5.46%.
Regarding `C=CCOc1cccc(-c2nnc(CCC(=O)NC(C)CC)c(=O)[nH]2)c1` (stereo not given), the activity change, negative = inhibition in experiment [1] was -9.34%; in experiment [2] it was -3.45%; in experiment [3], 0.092%; in experiment [4] it was -1.73%; in experiment [5], 0.325%.
For `COc1ccccc1CCN1C(=O)c2cc3ccccc3n2CC1(C)C(=O)NCCC(C)C` (stereo not given) the same measures were -0.643%, 1.18%, -0.419%, -9.46% and -2.71%.
For `COc1ccc(NC(=O)CCc2nnc3n(Cc4ccccc4)c(=O)c4ccccc4n23)cc1` the same measures were -11.1%, 4.51%, -3.81%, 1.81% and -4.36%.
For `CC1(C(=O)NC2CCCCCC2)Cn2c(cc3sccc32)C(=O)N1Cc1ccccc1F` (stereo not given) the same measures were 0.418%, 2.34%, 6.45%, 1.63% and -0.835%.
Consider `CCOc1ccccc1CN1C(=O)c2cc3occc3n2CC1(C)C(=O)NC1CCCCC1C` (stereo not given), for which the activity change, negative = inhibition in experiment [1] is 3.3%; in experiment [2], 5.91%; in experiment [3], 6.05%; in experiment [4] it was -2.22%; in experiment [5], -1.49%.
For `CCCn1c(=O)c2ccc(C(=O)NC(C)C)cc2n2c(SCC(=O)Nc3cccc(F)c3)nnc12` the same measures were 2.24%, 4.52%, 4.58%, -2.4% and -0.184%.
Regarding `CCN(CC)CCCC(C)Nc1c2ccc(Cl)cc2nc2ccc(OC)cc12` (stereo not given), the activity change, negative = inhibition in experiment [1] is 4.45% and -1.03%; in experiment [2], -4.81% and 10.1%; in experiment [3], -67.4% and -39.3%; in experiment [4], -24.7% and -13.8%; in experiment [5], -4.03% and -2.5%.
Regarding `COc1cccc(NC[C@@H](O)Cn2c3ccc(Br)cc3c3cc(Br)ccc32)c1`, the activity change, negative = inhibition is 5.71% in experiment [1]; -29.4% in experiment [2]; 0.151% in experiment [3]; -39.6% in experiment [4]; -8.36% in experiment [5].
Taken in the same sequence, the figures for `COC(=O)CNC(=O)C1CCc2nnc(CNC(=O)NC(C)C)n21` (stereo not given) were -2.01%, -1.71%, -1.55%, -6.08% and -17.3%.
For `O=C(c1ccc[nH]1)N1CCC(n2cc(-c3nc(C4CC4)no3)nn2)C1` (stereo not given) the same measures were -3.47%, -1.95%, 1.51%, -6.07% and -1.27%.
For `CCc1cc(CN(C)C(=O)C(c2ccc(C)cc2)N(C)C)on1` (stereo not given), the activity change, negative = inhibition in experiment [1] was 1.35%; in experiment [2], -1.1%; in experiment [3], 1.29%; in experiment [4], -1.74%; in experiment [5], -1.26%.
For `Cc1ccc(CNC(=O)C2(C)Cn3nc(C(=O)NCCc4ccco4)cc3C(=O)N2C)cc1` (stereo not given) the same measures were 5.07%, 0%, 6.23%, 3.24% and 2.99%.
Regarding `CCCCc1nc2c3ccccc3n(CC(=O)N3CCN(c4ccc(F)cc4)CC3)c(=O)n2n1`, the activity change, negative = inhibition was 17% in experiment [1]; 0% in experiment [2]; 13.8% in experiment [3]; 5.38% in experiment [4]; -0.846% in experiment [5].
For `C[C@@]12CCC(=O)C[C@@H]1C[C@H](OC(=O)Nc1ccccc1)CC2` the same measures were -7.85%, -12%, -3.6%, -20% and -17.1%.
On to `Cc1cccc(N2C(=O)c3cc4occc4n3CC2(C)C(=O)NC2CCCCC2)c1C` (stereo not given), for which the activity change, negative = inhibition was 2.59% in experiment [1]; -3.25% in experiment [2]; 6.88% in experiment [3]; 11.5% in experiment [4]; -0.252% in experiment [5].
